Experimental data taken from PubChem BioAssay AID1347165 (National Center for Advancing Translational Sciences (NCATS), 2019).
Out of some 220,000 compounds screened, about 5,700 (2.6%) were called active. The shares of active, inactive and inconclusive entries below differ from those in the screen. Calls come from the whole dose curve; as a rule, active = well fitted inhibition curve with a large enough effect; inconclusive = small, poorly fitted or top-dose-only effect; inactive = no such curve, though single readings can be large or run the other way. Where the call is inconclusive, the potency comes from a doubtful curve fit.

Biological target: Lysine-specific demethylase 5B (Homo sapiens) (UniProt Q9UGL1)
Chain of UniProt Q9UGL1 (Q9UGL1 whole entry, looked up): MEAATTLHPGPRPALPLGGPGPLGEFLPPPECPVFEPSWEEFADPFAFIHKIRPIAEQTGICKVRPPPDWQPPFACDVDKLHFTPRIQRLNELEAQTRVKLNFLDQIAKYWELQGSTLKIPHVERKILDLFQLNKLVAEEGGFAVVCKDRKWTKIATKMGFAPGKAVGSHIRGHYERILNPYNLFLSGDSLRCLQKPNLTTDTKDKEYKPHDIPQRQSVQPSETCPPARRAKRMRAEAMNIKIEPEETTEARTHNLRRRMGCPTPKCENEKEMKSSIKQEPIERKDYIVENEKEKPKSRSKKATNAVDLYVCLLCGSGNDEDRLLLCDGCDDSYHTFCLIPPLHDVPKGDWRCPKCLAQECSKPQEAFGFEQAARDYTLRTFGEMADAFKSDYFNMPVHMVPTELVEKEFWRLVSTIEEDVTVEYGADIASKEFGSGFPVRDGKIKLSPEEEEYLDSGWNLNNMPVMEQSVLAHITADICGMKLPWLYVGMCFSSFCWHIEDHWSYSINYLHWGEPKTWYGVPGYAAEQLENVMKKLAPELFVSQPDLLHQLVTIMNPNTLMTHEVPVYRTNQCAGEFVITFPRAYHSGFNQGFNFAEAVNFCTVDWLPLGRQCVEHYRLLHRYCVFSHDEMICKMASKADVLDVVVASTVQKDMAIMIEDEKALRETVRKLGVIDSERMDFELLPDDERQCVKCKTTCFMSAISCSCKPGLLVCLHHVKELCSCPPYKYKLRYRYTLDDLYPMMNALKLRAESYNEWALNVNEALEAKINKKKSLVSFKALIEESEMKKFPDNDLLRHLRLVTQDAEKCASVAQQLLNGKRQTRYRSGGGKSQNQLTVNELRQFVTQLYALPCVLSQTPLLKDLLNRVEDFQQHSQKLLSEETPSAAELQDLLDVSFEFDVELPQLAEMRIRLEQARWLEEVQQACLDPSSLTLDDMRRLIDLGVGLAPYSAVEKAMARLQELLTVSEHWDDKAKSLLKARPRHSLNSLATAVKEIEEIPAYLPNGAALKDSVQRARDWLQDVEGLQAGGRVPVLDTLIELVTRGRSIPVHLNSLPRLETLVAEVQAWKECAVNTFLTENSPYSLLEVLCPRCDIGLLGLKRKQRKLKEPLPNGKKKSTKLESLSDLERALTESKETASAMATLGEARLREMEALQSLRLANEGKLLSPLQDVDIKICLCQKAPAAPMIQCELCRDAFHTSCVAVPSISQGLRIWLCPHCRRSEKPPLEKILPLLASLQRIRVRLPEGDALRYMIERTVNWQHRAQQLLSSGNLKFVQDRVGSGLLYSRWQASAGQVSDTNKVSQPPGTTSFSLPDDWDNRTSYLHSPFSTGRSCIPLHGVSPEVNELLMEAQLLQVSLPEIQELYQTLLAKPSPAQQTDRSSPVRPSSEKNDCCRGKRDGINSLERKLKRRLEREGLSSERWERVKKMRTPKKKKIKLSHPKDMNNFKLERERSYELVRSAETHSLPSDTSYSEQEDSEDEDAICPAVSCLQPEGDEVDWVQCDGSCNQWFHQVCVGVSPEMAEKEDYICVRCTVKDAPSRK
Test: Primary screen for KDM5B Histone Demethylases FDH-coupled qHTS; note: nearly all actives have a fitted effect of over 70% in size; for activity change, negative = inhibition: 0% is about no effect
Details: FDH-coupled NADH fluorescence (FDH is formaldehyde dehydrogenase); activity change, negative = inhibition: at 57.7 µM (top of the series) unless noted
In short: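 Inhibition is measured as reduced NADH fluorescence generation from FDH coupling to formaldehyde release. Truncated KDM5BΔAP at 200 nM final acts on H3K4me3 peptide (12.5 µM in substrate mix) in pH 7.5 HEPES buffer with Tween-20, 30 min, room temperature.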
Potency is the fitted concentration of half-maximal effect; tags give direction and shape of the fitted curve.

Question: How did the Potency turn out when `O=C(c1ccc(-c2ccc(N3CCCCC3)nc2)cc1)N1CCCC1` was run?
Answer: active: 28.2 µM

Question: How did the Potency turn out when `Cc1cc2c(cc1S(=O)(=O)Nc1ccc(C(C)C)cc1)OCCN2C` was run?
Answer: inconclusive: 28.2 µM [inhibitor, single point]

Question: For `COc1ccc(-c2ccnc3nc(N4CCCCC4)[nH]c(=O)c23)cc1`, which “activity change, negative = inhibition” value is on record?
Answer: inactive: 598%

Question: `Cc1oc(-c2ccccc2F)nc1Cn1c(SCc2cccc(C(F)(F)F)c2)nc2ccncc21` was tested. Which Potency did it give?
Answer: inconclusive: 31.6 µM [inhibitor, partial curve, poor fit]

Question: Which Potency does the source give for `CCc1ccccc1NC(=O)c1cc(-c2ccc(Cl)s2)nc2ccccc12` here?
Answer: inconclusive: 3.55 µM [inhibitor, full curve, poor fit]

Question: How did the Potency turn out when `O=C1c2cc(N3CCOCC3)nc(-c3ccccc3Oc3ccccc3)c2CN1C1COC1` was run?
Answer: active: 28.2 µM

Question: For `CN(Cc1ccccc1Br)c1cc(C(=O)N2CCOCC2)c2ccccc2n1`, which Potency is on record?
Answer: inconclusive: 28.2 µM [inhibitor, partial curve, poor fit]

Question: Which Potency does the source give for `COCCNC(=O)c1ccc(OC2CCN(CCC(C)c3ccc(C)o3)CC2)c(Cl)c1` (stereo unspecified) here?
Answer: inconclusive: 22.4 µM [inhibitor, single point]

Question: For `O=C(Nc1ccccc1F)c1cnc(N2CCCCC2)c2ccccc12`, which Potency is on record?
Answer: inconclusive: 35.5 µM [inhibitor, partial curve, poor fit]

Question: Which “activity change, negative = inhibition” value does the source give for `Cc1ccc(S(=O)(=O)NC(C)C(=O)OCc2coc(-c3cccs3)n2)cc1` (stereo unspecified) here?
Answer: inactive: 100%

Question: With `Cc1ccc(OCCC2CCN(C(=O)c3ccsc3)C2)cc1` (stereo unspecified) as the molecule, how does the “activity change, negative = inhibition” value read?
Answer: inactive: 29.6%

Question: With `Cc1ccc2cc(-c3ccccc3)[nH]c2c1` as the molecule, how does the “activity change, negative = inhibition” value read?
Answer: inactive: 975%

Question: With `CC1(C)CNC(=O)c2nc(CC3(O)CCCC3)[nH]c2C1` as the molecule, how does the Potency read?
Answer: inconclusive: 11.2 µM [inhibitor, partial curve]

Question: Which Potency does the source give for `O=C(c1nn(-c2ccccc2)c(=O)c2ccccc12)N1CCC1` here?
Answer: inconclusive: 25.1 µM [inhibitor, single point]

Question: How did the Potency turn out when `Cc1ccsc1/C=C/C1=Cc2c(sc(N)c2C#N)C(C)(C)C1` was run?
Answer: inconclusive: 39.8 µM [inhibitor, single point]

Question: How did the “activity change, negative = inhibition” value turn out when `CCOCCOC(=O)c1nc2ccccc2nc1Nc1ccc(Cl)cc1` was run?
Answer: inactive: -2.44%

Question: With `CCOc1ccc(C(CC(=O)O)NC(=O)c2cnc(N(C)C)nc2C)cc1` (stereo unspecified) as the molecule, how does the Potency read?
Answer: inconclusive: 22.4 µM [inhibitor, partial curve, poor fit]

Question: Which “activity change, negative = inhibition” value does the source give for `O=C(COC(=O)c1ccc2ccccc2n1)Nc1ccc(F)c(F)c1F` here?
Answer: inactive: -10.5%

Question: Which Potency does the source give for `O=C(NCCCn1ccnc1)c1ccc(-c2ncc3cnc(-c4ccccc4)cn23)cc1` here?
Answer: active: 31.6 µM

Question: For `CN1C(=O)c2cccn2CC1CNC(=O)c1cccs1` (stereo unspecified), which “activity change, negative = inhibition” value is on record?
Answer: inactive: 22.6%

Question: For `CCCCOc1ccc(/C=C/C(=O)c2ccc(OC)c(CSCC(=O)O)c2)cc1`, which Potency is on record?
Answer: inconclusive: 39.8 µM [inhibitor, single point]

Question: `CC(Sc1ncnc2nc[nH]c12)c1ccccc1` (stereo unspecified) was tested. Which “activity change, negative = inhibition” value did it give?
Answer: inactive: 15.6%

Question: For `Cc1ccccc1-c1cc2c(nc1-c1ccccc1)nc(C(=O)NCCN(C)C)n2C`, which “activity change, negative = inhibition” value is on record?
Answer: inactive: -8110% [at 86.2 µM]

Question: For `O=C1Nc2ccc(-c3ccco3)cc2C(=O)N2CCN(C(=O)NC3CCCCC3)C[C@H]12`, which Potency is on record?
Answer: active: 28.2 µM

Question: How did the Potency turn out when `Cc1ccc(-c2cc3c(=O)n(CCNC(=O)c4ccccc4F)ccn3n2)cc1C` was run?
Answer: active: 20 µM

Question: For `COc1cccc(CN2CCNc3cc(Nc4ccccc4)ncc3C2)c1`, which Potency is on record?
Answer: inconclusive: 35.5 µM [inhibitor, single point]

Question: How did the Potency turn out when `CCOc1ccc(C(=O)Nc2ccc3c(c2)CCCN3S(=O)(=O)c2ccc(C)cc2)cc1` was run?
Answer: inconclusive: 17.8 µM [inhibitor, partial curve, poor fit]

Question: With `CC1=C(C(=O)OCc2ccc(C)cc2)C(c2ccccc2C(F)(F)F)CC(=O)N1` (stereo unspecified) as the molecule, how does the Potency read?
Answer: inconclusive: 2 µM [inhibitor, full curve, poor fit]

Question: How did the Potency turn out when `Cc1ccc(OCCSc2nc3ccccc3n2CC(=O)N2CCOCC2)cc1` was run?
Answer: inconclusive: 35.5 µM [inhibitor, single point]

Question: How did the “activity change, negative = inhibition” value turn out when `CCCCCCCCCCCCCCCCNC(=O)CC#N` was run?
Answer: inactive: 17.4%

Question: How did the “activity change, negative = inhibition” value turn out when `COc1cccc(CNC[C@H]2O[C@H](Cc3cc(-c4ccccc4)on3)CC[C@@H]2O)c1` was run?
Answer: inactive: 138% [at 86.2 µM]

Question: How did the “activity change, negative = inhibition” value turn out when `NNc1ccncc1` was run?
Answer: inactive: 10.9%

Question: Which “activity change, negative = inhibition” value does the source give for `COc1ccc(CNC(=O)Cn2ccn3nc(-c4ccc5c(c4)OCO5)cc3c2=O)cc1` here?
Answer: inactive: 15.6%

Question: With `CC(=O)Nc1cccc(NC(=O)c2nn(-c3ccc(F)c(F)c3)c3c2CCC3)c1` as the molecule, how does the Potency read?
Answer: inconclusive: 39.8 µM [inhibitor, single point]

Question: With `O=C(C1=C(O)C(=O)N(CC2CCCO2)C1c1ccccc1F)c1ccco1` (stereo unspecified) as the molecule, how does the Potency read?
Answer: inconclusive: 22.4 µM [inhibitor, single point]

Question: For `CCCN(Cc1ccccc1)C(=O)NCCC(=O)OCC`, which “activity change, negative = inhibition” value is on record?
Answer: inactive: 17%

Question: `O=C([C@@H]1C[C@@H](O)[C@H](O)[C@@H]2NC(=S)N(c3ccc(Cl)cc3)[C@@H]21)N1CCCCC1` was tested. Which “activity change, negative = inhibition” value did it give?
Answer: inactive: -9.5% [at 86.2 µM]

Question: Which Potency does the source give for `COc1ccc(CNC(=O)c2cc(-c3ccc(Br)s3)nc3ccccc23)c(OC)c1` here?
Answer: inconclusive: 39.8 µM [inhibitor, single point]

Question: With `Cc1ccc(-n2cc(CN3CCN4CCCC4C3)c(-c3cccc(C)c3)n2)cc1` (stereo unspecified) as the molecule, how does the Potency read?
Answer: inconclusive: 31.6 µM [inhibitor, partial curve, poor fit]

Question: Which Potency does the source give for `CC1=C(C(=O)NCc2cccc(F)c2)C2(CCCCCC2)OC1=O` here?
Answer: inconclusive: 1.41 µM [inhibitor, partial curve, poor fit]

Question: How did the “activity change, negative = inhibition” value turn out when `Cc1ccc(NC(=O)c2cc3c(s2)CCCCC3)c(C)c1` was run?
Answer: inactive: 9.48%

Question: How did the Potency turn out when `CCc1noc(-c2cn(C3CCN(C(=O)c4cc(C5CC5)[nH]n4)C3)nn2)n1` (stereo unspecified) was run?
Answer: inconclusive: 6.31 µM [inhibitor, partial curve]

Question: For `CN(C)CCN(C)[C@@H]1[C@H](O)[C@H](CO)O[C@@H]1CNC(=O)Nc1ccccc1`, which Potency is on record?
Answer: inconclusive: 8.91 µM [inhibitor, full curve]

Question: Which “activity change, negative = inhibition” value does the source give for `Cc1cnc(CC2CCN(C(=O)C3CC3)CC2)n1Cc1ccccc1` here?
Answer: inactive: 33.9%

Question: How did the “activity change, negative = inhibition” value turn out when `COc1cc(NC(=O)Cn2cccc2-c2nc(-c3ccc(F)cc3)no2)cc(OC)c1` was run?
Answer: inactive: 2%

Question: How did the Potency turn out when `COc1ccc(CNC(=O)c2ccc(CN3C(=O)C(C)=C(c4ccc(C)cc4)S3(=O)=O)cc2)cc1` was run?
Answer: inconclusive: 15.8 µM [inhibitor, partial curve, poor fit]

Question: For `CCN1CCC(N(C(=O)c2cn(C)c3ccccc23)C2CC2)CC1`, which “activity change, negative = inhibition” value is on record?
Answer: inactive: 13.5%

Question: Which “activity change, negative = inhibition” value does the source give for `CCCCN(C)C(=O)Cn1cc(C#N)c2ccccc21` here?
Answer: inactive: 19.3%

Question: With `NC(=O)c1ccc2nc(-c3ccccc3)c(-c3ccccc3)nc2c1` as the molecule, how does the Potency read?
Answer: inconclusive: 35.5 µM [inhibitor, partial curve, poor fit]

Question: How did the Potency turn out when `CN(C)c1ccc(-c2nnnn2[C@H]2CO[C@H]3[C@@H]2OC[C@@H]3NS(=O)(=O)c2ccc3ccccc3c2)cc1` was run?
Answer: active: 22.4 µM

Question: How did the “activity change, negative = inhibition” value turn out when `COc1cccc(CNC(=O)CSC2=NC3(CCCCC3)N=C2c2cccs2)c1` was run?
Answer: inactive: 4.8%

Question: Which Potency does the source give for `CCN(c1ccccc1C)S(=O)(=O)c1nnc(NC(=O)c2ccc(OC)c(OC)c2)s1` here?
Answer: inconclusive: 35.5 µM [inhibitor, partial curve, poor fit]

Question: With `O=C(NCCSc1c[nH]c2ccccc12)c1ccc(Cl)cc1` as the molecule, how does the Potency read?
Answer: inconclusive: 25.1 µM [inhibitor, partial curve, poor fit]

Question: `CC(C)NC(=O)NC[C@H]1O[C@@H](CO)[C@@H](O)[C@H]1N1CCN(c2ccccn2)CC1` was tested. Which Potency did it give?
Answer: inconclusive: 31.6 µM [inhibitor, partial curve]

Question: With `COc1ccc(Cn2c(SCc3ccc(C(=O)NCc4ccc(C)cc4)cc3)nc3cccnc32)cc1` as the molecule, how does the Potency read?
Answer: inconclusive: 10 µM [inhibitor, partial curve, poor fit]

Question: Which Potency does the source give for `Cc1c(O)ccc2c(CN3CCN(C)CC3)cc(=O)oc12` here?
Answer: inconclusive: 25.1 µM [inhibitor, partial curve, poor fit]

Question: How did the Potency turn out when `O=C(NCCc1ccccc1)c1ccc2c(c1)N(Cc1ccc(Cl)cc1)C(=O)c1ccccc1S2(=O)=O` was run?
Answer: inconclusive: 28.2 µM [inhibitor, partial curve, poor fit]

Question: How did the Potency turn out when `Oc1cccc(-c2cc3c(cn2)NCCN(Cc2ccccc2)C3)c1` was run?
Answer: inconclusive: 28.2 µM [inhibitor, partial curve]

Question: With `Cc1cccc(CN2CCN(c3nc4c([nH]3)c(=O)n(C)c(=O)n4C)CC2)c1` as the molecule, how does the “activity change, negative = inhibition” value read?
Answer: inactive: -1.19%

Question: `CC1C/C(=N\O)C(C)CN1` (stereo unspecified) was tested. Which “activity change, negative = inhibition” value did it give?
Answer: inactive: 11%

Question: For `Cc1ccc(C(=O)NCc2nnc3cc(-c4nc(C)no4)ccn23)cc1`, which Potency is on record?
Answer: active: 11.2 µM

Question: With `Cn1cc(CC(=O)NCc2ccc(C(N)=O)cc2)c2ccccc21` as the molecule, how does the “activity change, negative = inhibition” value read?
Answer: inactive: -6.98%

Question: `Cc1cc(C)c(NC(=O)Cn2c(=O)n(CCC(C)C)c(=O)c3cccnc32)c(C)c1` was tested. Which Potency did it give?
Answer: inconclusive: 39.8 µM [inhibitor, single point]

Question: With `O=C(/C=C/c1ccc(COc2ccc(F)cc2F)o1)c1cccc([N+](=O)[O-])c1` as the molecule, how does the Potency read?
Answer: inconclusive: 39.8 µM [inhibitor, single point]

Question: How did the “activity change, negative = inhibition” value turn out when `Fc1ccc(/C=N/Nc2ccc(F)cc2)cc1` was run?
Answer: inactive: 4.22%

Question: `CCOc1ccc(NC(=O)NCCN2CCN(c3cc(Cl)ccc3C)CC2)cc1` was tested. Which Potency did it give?
Answer: inconclusive: 25.1 µM [inhibitor, partial curve, poor fit]

Question: Which Potency does the source give for `COc1ccccc1-c1onc(C)c1C(=O)NCc1ccccc1C` here?
Answer: inconclusive: 31.6 µM [inhibitor, single point]

Question: `CC(=O)N1CCc2c(c3ccccc3n2C)C1` was tested. Which Potency did it give?
Answer: active: 25.1 µM

Question: For `CCOc1ccc(-c2cc(C(=O)OC)c3ccccc3n2)c(OCC)c1`, which Potency is on record?
Answer: inconclusive: 1.78 µM [inhibitor, partial curve, poor fit]

Question: How did the Potency turn out when `CC(=O)N1CCC(N2C[C@@H]3C[C@H](C2)c2c(NC(=O)NC4CCCCC4)ccc(=O)n2C3)CC1` was run?
Answer: inconclusive: 35.5 µM [inhibitor, single point]

Question: `CCCC(=O)Nc1cc2nn(-c3ccc(OC)cc3)nc2cc1C` was tested. Which Potency did it give?
Answer: inconclusive: 5.01 µM [inhibitor, partial curve, poor fit]
